± gives the standard deviation of the averaged measurements. Over roughly 33,000 sequences, “E-score (dimensionless, -0.5 to 0.5)” has its median near -0.049; the highest 2% begin near 0.37. This is one part of the list.

The experiment deals with T1, PmTbr T-box DNA-binding domain (GST fusion).
T1 sequence: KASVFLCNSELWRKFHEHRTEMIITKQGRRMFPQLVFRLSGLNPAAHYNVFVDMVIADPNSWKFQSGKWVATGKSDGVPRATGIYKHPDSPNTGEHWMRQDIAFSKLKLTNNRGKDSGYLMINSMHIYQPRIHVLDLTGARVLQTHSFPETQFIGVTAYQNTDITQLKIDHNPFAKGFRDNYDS
Description: PBM E-score of 8-mer (E-score (dimensionless, -0.5 to 0.5)); Tbr is Tbrain of the sea star Patiria miniata (Pm) or the sea urchin Strongylocentrotus purpuratus (Sp); higher = stronger binding preference; most listed sequences are background and not binding sites. Conditions: the construct has about 5 more residues each side. The essentials:
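Each ungapped 8-mer received an enrichment E-score from the Universal PBM Analysis Suite, averaged over duplicate arrays. The proteins were Tbr T-box DNA-binding domains, covering the whole T-box plus about five flanking residues, fused to GST and expressed in BL21 E. coli at 20 °C before glutathione affinity purification. Universal Agilent oligonucleotide arrays were made double-stranded by primer extension and incubated with 200 nM protein in PBS (pH 7.5). The arrays were then scanned and quantified, and every 8-mer was scored from probe intensities.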
As to GATCTTAC, the “PBM E-score of 8-mer” value is -0.2 ± 0.051.

For the sequence GATATTAA, the “PBM E-score of 8-mer” value is -0.0978 ± 0.15.

AGCGAGCG: the “PBM E-score of 8-mer” value turned out to be 0.114 ± 0.0037.

For GACACGTC, the “PBM E-score of 8-mer” value is 0.373 ± 0.021.

Regarding CTTCAAGA, the “PBM E-score of 8-mer” value is -0.315 ± 0.061.

As for AGGCTTCG, the “PBM E-score of 8-mer” value was -0.07 ± 0.03.

GATCTTAA: the “PBM E-score of 8-mer” value was -0.0592 ± 0.0038.

Turning to ACGCTCCG, the “PBM E-score of 8-mer” value was -0.0864 ± 0.038.

For ACGAGATC, the “PBM E-score of 8-mer” value amounted to 0.0209 ± 0.041.

GCACGCGC: the “PBM E-score of 8-mer” value came out at 0.168 ± 0.023.

Take AGTAATTG: the “PBM E-score of 8-mer” value is -0.113 ± 0.088.

On to GTTAAGGA, for which the “PBM E-score of 8-mer” value was -0.113 ± 0.048.

For the sequence ACTGGGCT, the “PBM E-score of 8-mer” value was -0.324 ± 0.035.

Turning to CTTGCCTA, the “PBM E-score of 8-mer” value is -0.00632 ± 0.15.

With AGACTGAC, the “PBM E-score of 8-mer” value is -0.135 ± 0.032.

Turning to ATGTATAG, the “PBM E-score of 8-mer” value is -0.0531 ± 0.039.

For the sequence ATTGCCTA, the “PBM E-score of 8-mer” value is -0.134 ± 0.077.

With CGCGTCCC, the “PBM E-score of 8-mer” value amounted to 0.0728 ± 0.075.

Consider CACCGGCA, for which the “PBM E-score of 8-mer” value turned out to be 0.132 ± 0.001.

As to CTGCGTCA, the “PBM E-score of 8-mer” value turned out to be 0.0224 ± 0.033.

Consider AGTTCGTC, for which the “PBM E-score of 8-mer” value was -0.0275 ± 0.018.

For the sequence ACCGTGGC, the “PBM E-score of 8-mer” value was -0.118 ± 0.095.

Consider ATGATGAC, for which the “PBM E-score of 8-mer” value came to 0.0122 ± 0.024.

For AATCAAAG, the “PBM E-score of 8-mer” value was -0.202 ± 0.029.

As to CAGGGCTA, the “PBM E-score of 8-mer” value was -0.0195 ± 0.019.

For CTCAGCAA, the “PBM E-score of 8-mer” value is 0.00353 ± 0.011.

On to AACACATG, for which the “PBM E-score of 8-mer” value turned out to be 0.317 ± 0.013.

For AATTAAAG, the “PBM E-score of 8-mer” value was -0.254 ± 0.078.

AGTCTATA: the “PBM E-score of 8-mer” value was -0.239 ± 0.057.

For GACGGCGA, the “PBM E-score of 8-mer” value was found to be 0.0367 ± 0.081.

For the sequence ACATTCCG, the “PBM E-score of 8-mer” value came to 0.0669 ± 0.011.

On to AACGAAGT, for which the “PBM E-score of 8-mer” value was -0.0242 ± 0.039.

As for AAGCGAAA, the “PBM E-score of 8-mer” value is -0.083 ± 0.07.

AGAACGCG: the “PBM E-score of 8-mer” value came to 0.0461 ± 0.013.

As to CCAGGAAA, the “PBM E-score of 8-mer” value was -0.000415 ± 0.025.

With CGCGCGAA, the “PBM E-score of 8-mer” value is 0.3963 ± 0.00041.

For ACCATCTG, the “PBM E-score of 8-mer” value was determined as 0.166 ± 0.007.

CCTTCCTA: the “PBM E-score of 8-mer” value was -0.2081 ± 0.00062.

Take CCACTGTC: the “PBM E-score of 8-mer” value came to 0.0702 ± 0.13.

Turning to AGTTAAAG, the “PBM E-score of 8-mer” value is -0.219 ± 0.12.

As for TGCTAGCA, the “PBM E-score of 8-mer” value was determined as 0.279 ± 0.025.

For the sequence GCACACTA, the “PBM E-score of 8-mer” value was determined as 0.102 ± 0.027.

As for CGCTTCTA, the “PBM E-score of 8-mer” value is -0.094 ± 0.061.

As to GCGTTTAA, the “PBM E-score of 8-mer” value was -0.0514 ± 0.0086.

In the case of CCGCCTTC, the “PBM E-score of 8-mer” value was determined as 0.1559 ± 0.00055.

As to AAGTGCGA, the “PBM E-score of 8-mer” value turned out to be 0.4835 ± 0.00061.

As for CCCGAAGG, the “PBM E-score of 8-mer” value is -0.156 ± 0.021.

Regarding AACTGGAA, the “PBM E-score of 8-mer” value is -0.3616 ± 0.002.

For CGCCTTCA, the “PBM E-score of 8-mer” value was 0.232 ± 0.047.

Consider CCGCTTGC, for which the “PBM E-score of 8-mer” value is 0.0475 ± 0.013.

Consider CATCAATC, for which the “PBM E-score of 8-mer” value was -0.188 ± 0.014.

Take AGTGTGTG: the “PBM E-score of 8-mer” value was 0.338 ± 0.021.

Take GAGGAACC: the “PBM E-score of 8-mer” value is -0.233 ± 0.12.

For the sequence ACGCACCT, the “PBM E-score of 8-mer” value was determined as 0.364 ± 0.0093.

For the sequence AATATGGA, the “PBM E-score of 8-mer” value was -0.238 ± 0.025.

ATACAGCC: the “PBM E-score of 8-mer” value is -0.344 ± 0.015.

CACCCCGC: the “PBM E-score of 8-mer” value amounted to 0.315 ± 0.013.

In the case of CATGGTTC, the “PBM E-score of 8-mer” value was -0.00724 ± 0.04.

In the case of ATTGAGGC, the “PBM E-score of 8-mer” value is -0.0962 ± 0.037.

For CTTGTGAC, the “PBM E-score of 8-mer” value worked out at 0.291 ± 0.038.

With ATGGACCG, the “PBM E-score of 8-mer” value is -0.166 ± 0.069.

For the sequence CCATACCA, the “PBM E-score of 8-mer” value was -0.0888 ± 0.031.

For CAGGTTCC, the “PBM E-score of 8-mer” value was -0.0715 ± 0.045.

In the case of AGCTCAGA, the “PBM E-score of 8-mer” value was -0.0299 ± 0.012.

In the case of ACTTGGCC, the “PBM E-score of 8-mer” value was -0.000655 ± 0.0025.

With GGTCTTAC, the “PBM E-score of 8-mer” value was -0.337 ± 0.034.

Regarding GCGGTGTA, the “PBM E-score of 8-mer” value is -0.136 ± 0.021.

As for AGATACCT, the “PBM E-score of 8-mer” value is -0.178 ± 0.033.

Regarding CTAGAAAG, the “PBM E-score of 8-mer” value was determined as 0.0291 ± 0.051.

As to CGACTTTA, the “PBM E-score of 8-mer” value is -0.0278 ± 0.13.

As to TGAATGAA, the “PBM E-score of 8-mer” value was -0.333 ± 0.066.

Take GGGCAATA: the “PBM E-score of 8-mer” value is -0.312 ± 0.0056.

Consider ATATCAGC, for which the “PBM E-score of 8-mer” value was -0.11 ± 0.024.

For AACGTGTA, the “PBM E-score of 8-mer” value stood at 0.156 ± 0.04.

For AAAGACGG, the “PBM E-score of 8-mer” value is -0.0971 ± 0.01.

CGGGCAGA: the “PBM E-score of 8-mer” value is -0.0643 ± 0.047.

With CACTCAAA, the “PBM E-score of 8-mer” value was -0.0491 ± 0.075.

In the case of GAACAACA, the “PBM E-score of 8-mer” value came to 0.0956 ± 0.026.

As to AGAAGACG, the “PBM E-score of 8-mer” value was -0.166 ± 0.091.

As to CTTTCTAC, the “PBM E-score of 8-mer” value was -0.0511 ± 0.013.

For the sequence CAGTGCGG, the “PBM E-score of 8-mer” value is -0.0389 ± 0.1.

Regarding CTAAACTC, the “PBM E-score of 8-mer” value was -0.176 ± 0.043.

With TCATTACA, the “PBM E-score of 8-mer” value is -0.0339 ± 0.0086.

As for ATTACATA, the “PBM E-score of 8-mer” value was -0.16 ± 0.038.

With AGATTACT, the “PBM E-score of 8-mer” value was 0.0295 ± 0.0091.

For CCACCTCG, the “PBM E-score of 8-mer” value is 0.282 ± 0.0037.

(Values after the supplement of paper PMC4166925.)
